# From a collection of fitness landscapes (doi:10.1016/j.celrep.2020.107928)
# Over roughly 81,000 sequences, “one-hybrid fitness for binding NBS DNA” has its median near -0.1; the highest 2% begin near 0.36. The list shows a part of the results.
# B1: Caulobacter ParB omega fusion; a variant is named by its letters at X, in order, B8GW30 (parent)
# chain: MESVVVGEPGMSEGRRGLGRGLSALLGEVDAAPAQAPGEQLGGSREAPIEILQRNPDQPRRTFREEDLEDLSNSIREKGVLQPILVRPSPDTAGEYQIVAGERAWRAAQRAGLKTVPIMVRELDDLAVLEIGIIENVQRADLNVLEEALSYKVLMEKFERTQENIAQTIGKSXSHVANXMRLLXLPDEVQSYLVSGELTAXHARAIAAAADPVALAKQIIEGGLSVRETEALARKAPNLSAGKSKGGRPPRVKDTDTQALESDLSSVLGLDVSIDHRGSTGTLTITYATLEQLDDLCNRLTRGI
# Variants of: B1
# Assay: one-hybrid fitness for binding NBS DNA (the Noc-binding site; scaled: cognate 1, non-cognate 0); higher = stronger binding
# Conditions: with NBS DNA site
# In short: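 In E. coli USO, a HIS3 reporter with its site placed 19 bp from the promoter was used to select Caulobacter ParB variants randomised at four specificity codons. Growth lasted 48 hours at 37°C on histidine-free M9 containing 0.1 mM IPTG and 5 mM 3-AT. Fitness was taken as the log change in variant-to-wild-type read ratio from Illumina sequencing of pre- and post-selection plasmids, rescaled between the non-cognate and cognate sites.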
row,Variant,one-hybrid fitness for binding NBS DNA
1,IRRV,≤ 0.2
2,AKCS,≤ 0.2
3,DSIG,≤ 0.2
4,PQNR,≤ 0.2
5,WLTG,≤ 0.2
6,GETD,≤ 0.2
7,ILYG,≤ 0.2
8,PNIT,≤ 0.2
9,CAFA,≤ 0.2
10,QSQA,0.248
11,RRYT,0.769
12,LGWR,≤ 0.2
13,HEWC,≤ 0.2
14,FYVT,≤ 0.2
15,QTVH,0.247
16,SSCR,≤ 0.2
17,KDNC,≤ 0.2
18,RKMP,≤ 0.2
19,HRIT,≤ 0.2
20,IYCF,≤ 0.2
21,PYAQ,≤ 0.2
22,FSAC,≤ 0.2
23,RTQW,≤ 0.2
24,MNAN,≤ 0.2
25,VTWR,≤ 0.2

row,Variant,one-hybrid fitness for binding NBS DNA
1,RTVP,≤ 0.2
2,NLGW,≤ 0.2
3,VCTR,≤ 0.2
4,SARW,≤ 0.2
5,FKQW,≤ 0.2
6,LCKV,≤ 0.2
7,LWKS,≤ 0.2
8,VSRV,≤ 0.2
9,MWEG,≤ 0.2
10,WGFS,≤ 0.2
11,ELAN,≤ 0.2
12,SLQQ,≤ 0.2
13,RCFV,≤ 0.2
14,YSIS,≤ 0.2
15,NGNP,≤ 0.2
16,QGHA,≤ 0.2
17,LDGC,≤ 0.2
18,TYWF,≤ 0.2
19,TRTA,≤ 0.2
20,AKNL,≤ 0.2
21,MMNL,≤ 0.2
22,HAVE,≤ 0.2
23,GQRR,≤ 0.2
24,HVAM,≤ 0.2
25,SISK,≤ 0.2

row,Variant,one-hybrid fitness for binding NBS DNA
1,IHFT,≤ 0.2
2,SQRL,≤ 0.2
3,INHL,≤ 0.2
4,AWCS,≤ 0.2
5,RHGL,≤ 0.2
6,FNTY,≤ 0.2
7,RPMR,≤ 0.2
8,YISA,≤ 0.2
9,YSDT,≤ 0.2
10,TFRR,≤ 0.2
11,LDDK,≤ 0.2
12,PPLA,≤ 0.2
13,ETIT,≤ 0.2
14,PSPP,≤ 0.2
15,LQWD,≤ 0.2
16,CPSM,≤ 0.2
17,RNHW,≤ 0.2
18,PCVY,≤ 0.2
19,THYR,≤ 0.2
20,QSYD,≤ 0.2
21,SGDT,≤ 0.2
22,AYIC,≤ 0.2
23,CQTG,≤ 0.2
24,DTDT,≤ 0.2
25,VPNR,≤ 0.2

row,Variant,one-hybrid fitness for binding NBS DNA
1,QFPC,≤ 0.2
2,LMNH,≤ 0.2
3,GVVC,≤ 0.2
4,RFNH,≤ 0.2
5,TSPI,≤ 0.2
6,QLHC,≤ 0.2
7,PLVC,≤ 0.2
8,IRGA,≤ 0.2
9,LLAM,≤ 0.2
10,HPVS,≤ 0.2
11,ETNY,≤ 0.2
12,HVRR,≤ 0.2
13,EGGG,≤ 0.2
14,KRPY,≤ 0.2
15,SWSG,≤ 0.2
16,CDLR,≤ 0.2
17,NEGG,≤ 0.2
18,IARH,≤ 0.2
19,RVAG,≤ 0.2
20,CGER,≤ 0.2
21,RNNG,≤ 0.2
22,PSNC,≤ 0.2
23,AFAN,≤ 0.2
24,KAAK,≤ 0.2
25,RRMD,≤ 0.2

row,Variant,one-hybrid fitness for binding NBS DNA
1,KSEY,≤ 0.2
2,CAVM,≤ 0.2
3,RGNK,≤ 0.2
4,AYGW,≤ 0.2
5,CTCV,≤ 0.2
6,IQLY,≤ 0.2
7,RAFE,≤ 0.2
8,WDAG,≤ 0.2
9,FGYG,≤ 0.2
10,EPKS,≤ 0.2
11,GPNT,≤ 0.2
12,RIFK,≤ 0.2
13,GKES,≤ 0.2
14,VIRC,≤ 0.2
15,RMDL,≤ 0.2
16,SSPN,≤ 0.2
17,QGHD,≤ 0.2
18,HGMG,≤ 0.2
19,PAAG,≤ 0.2
20,PDRC,≤ 0.2
21,HASK,≤ 0.2
22,HVTM,≤ 0.2
23,RRVW,≤ 0.2
24,HYYG,≤ 0.2
25,PVVA,≤ 0.2

row,Variant,one-hybrid fitness for binding NBS DNA
1,CCTK,≤ 0.2
2,ASPE,≤ 0.2
3,RFLE,≤ 0.2
4,RWVT,0.21
5,SFAF,≤ 0.2
6,TSRT,≤ 0.2
7,QCAF,≤ 0.2
8,YPVS,≤ 0.2
9,QVYC,≤ 0.2
10,REYE,≤ 0.2
11,HPSC,≤ 0.2
12,SMVR,≤ 0.2
13,LSRC,≤ 0.2
14,SHPI,≤ 0.2
15,LCLN,≤ 0.2
16,KYNG,≤ 0.2
17,HTTT,≤ 0.2
18,WDLC,≤ 0.2
19,AQMM,≤ 0.2
20,THPW,≤ 0.2
21,LNEV,≤ 0.2
22,TCRS,≤ 0.2
23,RHQV,≤ 0.2
24,VSCT,≤ 0.2
25,WFGG,≤ 0.2

row,Variant,one-hybrid fitness for binding NBS DNA
1,VNRT,≤ 0.2
2,GQWL,≤ 0.2
3,RPVI,≤ 0.2
4,RGAM,≤ 0.2
5,NLCC,≤ 0.2
6,VKTC,≤ 0.2
7,QRYV,0.348
8,PSDD,≤ 0.2
9,NSNF,≤ 0.2
10,NCLM,≤ 0.2
11,LVRH,≤ 0.2
12,YTRW,≤ 0.2
13,MNYT,≤ 0.2
14,QWVN,≤ 0.2
15,SQQW,≤ 0.2
16,YAPS,≤ 0.2
17,RLLG,≤ 0.2
18,YGNF,≤ 0.2
19,LGNG,≤ 0.2
20,QYET,0.277
21,RFEW,≤ 0.2
22,LGEF,≤ 0.2
23,VDGV,≤ 0.2
24,KQSS,≤ 0.2
25,PYFY,≤ 0.2

row,Variant,one-hybrid fitness for binding NBS DNA
1,KLMR,≤ 0.2
2,RRTS,0.661
3,FFPG,≤ 0.2
4,RQML,≤ 0.2
5,TKTP,≤ 0.2
6,QNEM,≤ 0.2
7,RWGM,≤ 0.2
8,HHMR,≤ 0.2
9,QVFI,≤ 0.2
10,NPRS,≤ 0.2
11,IRGV,≤ 0.2
12,QYLA,≤ 0.2
13,CRVE,≤ 0.2
14,SRSK,≤ 0.2
15,DDAS,≤ 0.2
16,HQSI,≤ 0.2
17,RHIL,≤ 0.2
18,ITYY,≤ 0.2
19,LYDA,≤ 0.2
20,DRCR,≤ 0.2
